Test results as given in paper PMC7060200, “Selective Binding of HSC70 and its Co-Chaperones to Structural Hotspots on CFTR” (Scientific Reports, 2020).
Results are given in words; binding and its absence hold for the method and conditions named. Some binding calls cover weakened binding; strength is not graded here.

By UniProt entry, the sequences of proteins in these tests, tags left out. Where a name states a change or a piece, a line headed by the entry shows the natural chain unless it says otherwise.
UniProt P11142: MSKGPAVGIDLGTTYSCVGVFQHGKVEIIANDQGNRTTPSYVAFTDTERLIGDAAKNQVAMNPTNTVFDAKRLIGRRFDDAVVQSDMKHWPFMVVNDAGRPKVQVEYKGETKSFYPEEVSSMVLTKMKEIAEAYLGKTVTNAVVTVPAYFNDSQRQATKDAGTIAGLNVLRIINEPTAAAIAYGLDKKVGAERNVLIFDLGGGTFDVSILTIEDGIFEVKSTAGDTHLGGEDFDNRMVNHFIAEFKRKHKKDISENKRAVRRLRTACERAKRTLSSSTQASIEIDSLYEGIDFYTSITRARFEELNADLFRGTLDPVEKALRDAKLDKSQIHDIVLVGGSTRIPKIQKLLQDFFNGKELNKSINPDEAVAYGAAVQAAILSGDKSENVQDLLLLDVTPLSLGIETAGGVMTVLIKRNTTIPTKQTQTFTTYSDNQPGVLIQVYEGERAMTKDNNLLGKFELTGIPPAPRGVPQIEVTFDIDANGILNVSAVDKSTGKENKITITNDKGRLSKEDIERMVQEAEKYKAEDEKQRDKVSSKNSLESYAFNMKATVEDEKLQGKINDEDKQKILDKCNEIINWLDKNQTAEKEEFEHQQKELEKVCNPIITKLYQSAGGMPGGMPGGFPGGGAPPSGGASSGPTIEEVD
UniProt P13569: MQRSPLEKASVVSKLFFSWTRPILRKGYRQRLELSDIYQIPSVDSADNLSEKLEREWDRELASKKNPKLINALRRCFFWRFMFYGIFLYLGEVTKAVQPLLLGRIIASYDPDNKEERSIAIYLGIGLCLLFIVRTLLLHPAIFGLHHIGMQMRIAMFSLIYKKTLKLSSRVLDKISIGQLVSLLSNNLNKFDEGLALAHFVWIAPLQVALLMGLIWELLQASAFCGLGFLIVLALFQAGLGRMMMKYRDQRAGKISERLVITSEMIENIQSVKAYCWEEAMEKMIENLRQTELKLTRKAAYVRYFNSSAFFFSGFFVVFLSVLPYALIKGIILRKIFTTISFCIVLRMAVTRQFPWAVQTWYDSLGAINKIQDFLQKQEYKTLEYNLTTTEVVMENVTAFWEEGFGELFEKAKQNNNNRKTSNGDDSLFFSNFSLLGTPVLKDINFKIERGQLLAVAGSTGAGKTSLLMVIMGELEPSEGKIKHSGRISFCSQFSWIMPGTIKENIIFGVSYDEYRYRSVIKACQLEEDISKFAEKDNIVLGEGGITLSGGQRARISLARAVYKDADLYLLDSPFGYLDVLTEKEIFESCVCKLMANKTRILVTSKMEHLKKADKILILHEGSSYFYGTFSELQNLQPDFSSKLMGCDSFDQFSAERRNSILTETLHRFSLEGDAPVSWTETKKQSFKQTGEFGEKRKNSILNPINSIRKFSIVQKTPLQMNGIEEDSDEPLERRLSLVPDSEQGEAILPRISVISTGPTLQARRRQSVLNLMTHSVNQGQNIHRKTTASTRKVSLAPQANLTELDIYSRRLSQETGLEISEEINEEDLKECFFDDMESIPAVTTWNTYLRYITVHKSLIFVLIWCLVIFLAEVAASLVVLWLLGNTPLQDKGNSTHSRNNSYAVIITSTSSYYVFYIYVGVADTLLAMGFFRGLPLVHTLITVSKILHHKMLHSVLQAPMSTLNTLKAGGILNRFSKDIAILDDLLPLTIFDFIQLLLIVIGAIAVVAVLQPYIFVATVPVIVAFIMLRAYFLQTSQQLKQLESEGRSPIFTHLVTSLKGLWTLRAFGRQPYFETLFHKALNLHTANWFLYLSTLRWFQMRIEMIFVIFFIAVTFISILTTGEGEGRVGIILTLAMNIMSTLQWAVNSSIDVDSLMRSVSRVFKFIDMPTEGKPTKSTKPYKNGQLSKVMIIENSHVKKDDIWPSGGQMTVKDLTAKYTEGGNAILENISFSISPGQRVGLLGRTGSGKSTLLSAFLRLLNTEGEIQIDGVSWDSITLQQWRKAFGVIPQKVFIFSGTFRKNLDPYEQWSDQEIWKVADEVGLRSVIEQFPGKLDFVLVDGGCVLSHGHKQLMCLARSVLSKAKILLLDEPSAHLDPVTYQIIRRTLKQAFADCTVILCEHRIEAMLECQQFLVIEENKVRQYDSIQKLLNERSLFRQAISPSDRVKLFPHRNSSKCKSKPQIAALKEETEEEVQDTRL
UniProt P08659: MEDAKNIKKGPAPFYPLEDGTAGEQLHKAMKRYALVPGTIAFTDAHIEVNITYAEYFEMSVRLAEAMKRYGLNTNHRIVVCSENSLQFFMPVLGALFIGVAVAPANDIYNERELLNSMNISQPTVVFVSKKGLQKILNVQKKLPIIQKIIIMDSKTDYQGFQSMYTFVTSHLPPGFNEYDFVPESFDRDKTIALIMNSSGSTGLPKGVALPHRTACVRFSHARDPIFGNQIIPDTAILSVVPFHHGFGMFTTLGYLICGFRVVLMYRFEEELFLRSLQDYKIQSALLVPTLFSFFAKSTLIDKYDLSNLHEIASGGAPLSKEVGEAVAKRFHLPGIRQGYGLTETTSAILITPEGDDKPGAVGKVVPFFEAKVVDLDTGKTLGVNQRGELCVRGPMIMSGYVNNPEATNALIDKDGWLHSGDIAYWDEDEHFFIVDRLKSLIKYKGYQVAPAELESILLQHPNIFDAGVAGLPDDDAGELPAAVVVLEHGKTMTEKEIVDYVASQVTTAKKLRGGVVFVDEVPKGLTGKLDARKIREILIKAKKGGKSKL
UniProt O60884: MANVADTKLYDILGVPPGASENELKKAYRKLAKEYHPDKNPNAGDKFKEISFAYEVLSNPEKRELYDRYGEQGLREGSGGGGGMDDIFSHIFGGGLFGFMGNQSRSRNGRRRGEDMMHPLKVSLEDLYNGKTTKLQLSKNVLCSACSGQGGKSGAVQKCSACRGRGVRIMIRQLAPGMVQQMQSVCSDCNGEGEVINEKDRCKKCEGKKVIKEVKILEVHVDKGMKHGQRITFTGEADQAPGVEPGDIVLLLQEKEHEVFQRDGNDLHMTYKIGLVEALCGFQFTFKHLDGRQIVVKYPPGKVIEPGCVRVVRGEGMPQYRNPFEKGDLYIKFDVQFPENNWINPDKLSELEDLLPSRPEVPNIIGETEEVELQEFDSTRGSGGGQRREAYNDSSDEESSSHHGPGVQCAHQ

Experiments:
Flag-tagged HSC70 = Flag-tagged HSC70 (UniProt P11142); experiment: co-IP; refolding reactions (4 μM Flag-HSC70, 4 μM DJA2, ATP, denatured luciferase, with or without 100 μM peptide) stopped at 0 or 15 min with apyrase at 4 °C; FLAG-M2 magnetic beads; Western blot for luciferase; both purified
[1] = biological target: T1, CFTR peptide 488-L, biotinylated (library form) (UniProt P13569); experiment: ELISA; library screen: biotinylated 15-mer peptides (5 µM) immobilised on streptavidin plates; 2 μM His-tagged chaperone, 45 min at room temperature; HSC70 in buffer G with 1 mM ATP, DJA1 and DJA2 in buffer H without nucleotide; detection by His-Probe-HRP; both purified
T1 sequence (peptide, N-terminal biotin): GSGSKIKHSGRISFCSQFS

[2] = biological target: T2, CFTR peptide 493-L, biotinylated (library form) (UniProt P13569); experiment: as above
T2 sequence (peptide, N-terminal biotin): GSGSGRISFCSQFSWIMPG

[3] = biological target: T3, CFTR peptide 1293-L, biotinylated (library form) (UniProt P13569); experiment: ELISA; titration of increasing concentrations of chaperone on immobilised biotinylated peptide; HSC70 with ATP; apparent Kd from linearised binding curves; both purified
T3 sequence (peptide, N-terminal biotin): GSGSFGVIPQKVFIFSGTF

## luciferase, guanidine denatured (from UniProt P08659 1-550) (enzyme)
Flag-tagged HSC70
  binding: binds

## DNAJA2 (DJA2), His-tagged (from UniProt O60884 1-412)
[1]
  binding: no binding (tested: 2 μM)
[2]
  binding: no binding (tested: 2 μM)

## HSC70 (HSPA8), His-tagged (from UniProt P11142 1-646)
[1]
  binding: no binding (tested: 2 μM)
[2]
  binding: no binding (tested: 2 μM)
[3]
  binding: binds

## DNAJA1 (DJA1), His-tagged (from UniProt P31689 1-397)
[1]
  binding: no binding (tested: 2 μM)
[2]
  binding: no binding (tested: 2 μM)
